Data published in PubChem BioAssay AID1347417 (National Center for Advancing Translational Sciences (NCATS), 2020).
Where “and” joins values, the source holds several entries; their conditions need not be identical. Identical values can stand only once. The campaign covered roughly 120,000 compounds. About 5,300 (4.4%) were called active. This list was built around the results that the source calls inconclusive (neither active nor inactive); the mix of calls is not that of the screen. Calls come from the whole dose curve; as a rule, active = well fitted inhibition curve with a large enough effect; inconclusive = small, poorly fitted or top-dose-only effect; inactive = no such curve, though single readings can be large or run the other way. Potencies of inconclusive entries are doubtful fits and often do not repeat.

Assay: qHTS Primary assay for Inhibitors of Plasmodium falciparum Dd2 growth in vitro; note: nearly all actives have a fitted effect of over 65% in size;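 for activity, negative = inhibition: plate controls were DMSO vehicle for no effect and reference drug for full effect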
Details: P. falciparum Dd2 growth, SYBR Green, 72 h; activity, negative = inhibition: at 28.9 µM (top of the series) unless noted; series mostly up to 28.9 µM
Method in brief: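 Readout: SYBR Green fluorescence, 485 nm excitation, 535 nm emission, after ~16 h lysis at 37C. Before that, Dd2-infected red cells (2.5% hematocrit) grew 72 h with compound, 29 uM top final concentration.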
Potency is the fitted concentration of half-maximal effect; tags give direction and shape of the fitted curve.

SMILES	Potency	activity, negative = inhibition
CCN(CCCNC(=O)C1CCCCC(=O)N1C)c1ccccc1 (stereo not drawn)	inconclusive: 7.08 µM [inhibitor, single point]	
CCCCCCSc1nc(N)c2c3c(sc2n1)CCCC3C (stereo not drawn)	inconclusive: 15.8 µM [inhibitor, single point]	
CSc1cccc(Nc2cc(C(=O)NC3CCCCC3)c3ccccc3n2)c1	inconclusive: 1.41 µM [inhibitor, full curve]	
CCc1ccc2occ(CC(=O)Nc3c(C(=O)c4ccc(F)cc4)oc4ccccc34)c2c1	inconclusive: 10 µM [inhibitor, single point]	
O=C(N1CCC(n2cc(-c3nc(-c4ccccc4)no3)nn2)CC1)C1(c2ccccc2)CC1	inactive	
CC(=O)N1CC2(CCN(C(=O)c3ccc(Cl)cc3)CC2)Cc2ccccc21	inactive	
CS(=O)(=O)N1CCC(OC2CCN(C(=O)Nc3c(F)cccc3F)CC2)CC1	inactive	
CCCN(c1ccccc1F)S(=O)(=O)c1cc(-c2cc(C)no2)ccc1C	inconclusive: 17.8 µM [inhibitor, single point]	
CN(C(=O)[C@@H]1C[C@H](c2cccc(C(F)(F)F)c2)N(Cc2cnn(C)c2)C1)c1ccccc1	inconclusive: 3.98 µM [inhibitor, single point]	
COc1ccc(-c2ccc3ccccc3n2)c(OC)c1OC	inactive	
CC(C)(C)C1CCc2c(sc(NC(=O)c3cc(-c4ccc(F)cc4)on3)c2C#N)C1 (stereo not drawn)	inactive	
CN(Cc1ccc(F)cc1)Cc1ccccc1C(F)(F)F	inactive	
CCN1C(=O)CCN(C(=O)c2cnn(C)c2)CC12CCOCC2	inactive	
Cc1ccccc1OCc1nc(C2CN(C(=O)c3cc4ccccc4[nH]3)C2)no1	inconclusive: 17.8 µM [inhibitor, single point]	
CC1CCN(C(=O)c2cc(CN3CCC(Cc4ccccc4)CC3)on2)CC1	inconclusive: 17.8 µM [inhibitor, single point]	
COc1ccc(-c2cc(-c3c(C)noc3C)c3cncn3c2)cn1	inconclusive: 11.2 µM [inhibitor, partial curve, poor fit]	
O=C(NCCc1ccccc1)C1CCCN(C2CCN(Cc3nccs3)CC2)C1 (stereo not drawn)	inconclusive: 10 µM [inhibitor, partial curve, poor fit]	
Cc1ccc(C)c(N2CCN(C3(c4ccccc4)C(=O)c4ccccc4C3=O)CC2)c1	inconclusive: 17.8 µM [inhibitor, single point]	
Cn1nccc1-c1ncc2c(n1)OCCN(c1cccc(C(F)(F)F)c1)C2=O	inconclusive: 3.98 µM [inhibitor, partial curve, poor fit]	
O=c1[nH]c(C2CCN(Cc3cccc(-c4cccs4)c3)CC2)nc2ccc(F)cc12	inconclusive: 7.94 µM [inhibitor, partial curve, poor fit] and inconclusive: 6.31 µM [inhibitor, partial curve, poor fit]	
O=C([C@@H]1Cc2nc[nH]c2CN1Cc1ccc(Cl)cc1)N1CCC(Cc2ccccc2)CC1	inconclusive: 5.62 µM [inhibitor, partial curve, poor fit]	

SMILES	Potency	activity, negative = inhibition
COc1ccc(C(=O)N2C[C@@H]3C[C@H](C2)c2ccc(-c4ccc5ccccc5c4)c(=O)n2C3)cc1	inactive	
Cc1cccc(CNC(=O)C2CCCN(c3cnc4nc(C)c(C)nc4c3)C2)c1 (stereo not drawn)	inconclusive: 1.78 µM [inhibitor, single point]	
Cc1ccc(F)c(C(=O)N[C@H](Cc2ccccc2)C2CC(O)C2)c1Cl (stereo partly drawn)	inactive	
O=C(NCc1ccc(F)cc1)c1nc(-c2cccnc2)c2ccccn12	inconclusive: 11.2 µM [inhibitor, single point]	
Cc1c(C(c2ccc(O)cc2)c2c(O)c3ccccc3oc2=O)c(=O)n(-c2ccccc2)n1C (stereo not drawn)	inconclusive: 11.2 µM [inhibitor, partial curve, poor fit]	
Cc1ccc(CC2CCOC3(CCN(C(=O)c4cccs4)CC3)C2)cc1 (stereo not drawn)	inconclusive: 17.8 µM [inhibitor, single point]	
COc1ccc(CN2C[C@@H](CO)[C@H](NC(C)=O)C2)cc1Br	inconclusive: 3.98 µM [inhibitor, single point]	
O=C(Nc1ccon1)c1cnc2n[nH]c(-c3ccccc3)c2n1	inactive	
CCc1ccc(CNC(=O)c2ccc(Cn3c(=O)c4cccn4c4cccnc43)cc2)cc1		inconclusive: -41.2% [inhibitor] [at 5.79 µM]
CCCc1nnc(NC(=O)CSc2nnc3c4ccccc4n(CC)c3n2)s1	inactive	
COC(=O)[C@@H]1Cc2ncn(Cc3ccc(Cl)cc3)c2CN1C(=O)c1ccc(C(F)(F)F)cc1	inconclusive: 20 µM [inhibitor, single point]	
Cc1nc2ccccc2n1CCc1nc2c3ccccc3nc(SCc3ccccc3F)n2n1	inconclusive: 4.47 µM [inhibitor, partial curve]	
COc1ccc(OC(=O)c2cn(-c3cccc(OC)c3)c(=O)c3ccccc23)cc1	inconclusive: 10 µM [inhibitor, single point]	
COc1ccc(C(=O)NCCC2CCN(C(=O)Nc3cc(F)cc(F)c3)CC2)cc1	inactive	
COc1ccc(CNC(=O)Cn2nc(C)c3sc(-c4ccccc4)nc3c2=O)cc1	inconclusive: 2.82 µM [inhibitor, partial curve, poor fit]	
CS(=O)(=O)c1ccc(-c2cnc([C@@H]3COCCN3C3CCNCC3)[nH]2)cc1	inactive	
CC(C)CCN1CCC(N2CCN(S(=O)(=O)c3ccc(F)cc3F)CC2)C1=O (stereo not drawn)	inactive	
O=S(=O)(c1cccs1)N1CCC(n2cnnc2-c2ccccc2)CC1	inconclusive: 14.1 µM [inhibitor, single point]	
CN(CC1CCOC1)S(=O)(=O)c1ccc(C(F)(F)F)cc1 (stereo not drawn)		inactive: 39.4% [at 5.79 µM]
COc1ccc(-c2oc3ncn4nc(COc5ccc(Cl)cc5)nc4c3c2-c2ccc(OC)cc2)cc1	inconclusive: 1 µM [inhibitor, full curve]	
O=C(C[C@@H]1CCNC[C@@H]1Cc1cc(-c2ccccc2)on1)N1CCC(Cc2ccccc2)CC1	inconclusive: 7.08 µM [inhibitor, partial curve, poor fit]	

SMILES	Potency	activity, negative = inhibition
CCOc1ccc(C(=O)N2CC(=O)Nc3ccc(F)cc3C2c2ccc(F)cc2)cc1 (stereo not drawn)	inactive	
O=c1[nH]c(C2CCCN(Cc3ccc(Cl)cc3)C2)nc2ccc(F)cc12 (stereo not drawn)	active: 8.91 µM	
O=[N+]([O-])c1cccc(-c2noc([C@@H]3C[C@@H](O)CN3CC3CCCCC3)n2)c1	inactive	
O=C(c1cc2ccccc2[nH]1)N1CCNc2cnc(Nc3ccccc3)nc2C1	inconclusive: 8.91 µM [inhibitor, partial curve, poor fit]	
C#CCNC(=O)c1nc(C(C)(C)C)c2cnccn12	inconclusive: 31.6 µM [inhibitor, single point]	
O=C1NC(=NC2CCCC2)C2(CCN([S+](=O)([O-])c3ccccc3)C2)N1c1cc(F)cc(F)c1 (stereo not drawn)	inactive	
CC1CCCCC1Nc1ncnc2c1CN(C1CCNCC1)C(=O)CN2C (stereo not drawn)	inconclusive: 3.98 µM [inhibitor, partial curve, poor fit]	
CN(Cc1cccc(C(F)(F)F)c1)Cc1ccccc1OCC(=O)O	inconclusive: 5.01 µM [inhibitor, partial curve, poor fit]	
CCOc1cccc(C(=O)N(Cc2ccc(C(C)C)cc2)C2CCS(=O)(=O)C2)c1 (stereo not drawn)	inconclusive: 20 µM [inhibitor, single point]	
COC(=O)CNC(=O)C1CCCN1c1nc2ncccc2o1 (stereo not drawn)	inactive	
Cc1cc(NC(=O)c2ccc3c(c2)N(C)C2CCCCCN2C3=O)ccc1F (stereo not drawn)	inconclusive: 2.82 µM [inhibitor, full curve, poor fit]	
C[S+](=O)([O-])c1ccc(-c2cc(C(=O)N3CCCC3)nn3cccc23)cc1		inconclusive: -46.7% [inhibitor]
COc1ccc(-c2noc(CC3CCN(C(=O)COc4ccc(C)cc4)CC3)n2)cc1	inconclusive: 8.91 µM [inhibitor, partial curve, poor fit]	
O=C(O)COc1ccc(-c2nccc3c2C(=O)N(Cc2c[nH]c4ccccc24)CC(COc2ccc(F)c(F)c2)O3)cc1 (stereo not drawn)	inconclusive: 10 µM [inhibitor, single point]	
COc1ccc(S(=O)(=O)N(CCc2ccccc2)CC(=O)Nc2cc(Cl)ccc2C)cc1	inconclusive: 11.2 µM [inhibitor, single point]	
COc1cc(OC)cc(OCc2nc3c(n2Cc2ccccc2)C(=O)N(Cc2cccc(Cl)c2)CCN3)c1	active: 7.94 µM	
CNC(=O)CCn1ncc2cc(OCc3ccccc3-c3cnn(C)c3)ccc21	inconclusive: 31.6 µM [inhibitor, single point]	
Cc1ccc(-n2nc(C)c([C@@H]3C=C[C@@H](NC(=O)Nc4ccc(Cl)cc4)C3)c2C)cc1Cl	inconclusive: 1.26 µM [inhibitor, partial curve, poor fit]	
CCN1c2cc(C(=O)NC3CCCCCC3)ccc2C(=O)N2CCCCCC21 (stereo not drawn)	inconclusive: 1.41 µM [inhibitor, partial curve, poor fit]	
O=C(c1cc(F)ccc1F)N1CCC(n2cc(-c3nc(-c4ccccc4)no3)nn2)C1 (stereo not drawn)	inconclusive: 14.1 µM [inhibitor, partial curve, poor fit]	
COc1ccc2[nH]c(C(=O)NCC(=O)N3CCCCCCNC(=O)CC3c3ccccc3)cc2c1 (stereo not drawn)	active: 5.01 µM	
